In all, about 46,000 compounds went through this assay and about 60 (0.1%) were called active. Roughly 3% stayed inconclusive and do not appear here. Calls come from the whole dose curve; as a rule, active = well fitted inhibition curve with a large enough effect; inconclusive = small, poorly fitted or top-dose-only effect; inactive = no such curve, though single readings can be large or run the other way. Some of the results follow.
Experiment: Primary qHTS assay for Inhibitors of ovarian cancer metastasis using an organotypic tumor microenvironment (TME) model.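 For activity change, negative = inhibition: plate controls were DMSO wells for no effect and tomatine positive control wells for full effect.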 Note: nearly all actives have a fitted effect of over 65% in size.
Conditions: SKOV3ip1-GFP adhesion/invasion on 3D omental model, fluorescence; series mostly up to 45.8 µM; activity change, negative = inhibition: at the top concentration
Summary of the method: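 A 3D layer of primary human omental fibroblasts, mesothelial cells, fibronectin and collagen I, grown 48 hr, received SKOV3ip1-GFP cells in serum-free medium plus compounds at 0.36-46 umol/L. After 2 hr RT and 16 hr 37 C, fixed adherent GFP cells were counted; normalized to DMSO and tomatine.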

Activity change, negative = inhibition, inactive:
CC(=O)c1ccc(NC(=O)COc2ccccc2-c2nc(C(C)C)no2)cc1 0.11%
CC(C)C[C@H](CC(=O)O)C(=O)N[C@@H](Cc1c[nH]c2ccccc12)C(=O)N[C@@H](C)c1ccccc1 5.8%
CC(C)(C)C(=O)Cn1c(=O)n(CCCCCC(=O)NCc2ccccc2Cl)c(=O)c2sccc21 11.7%
Cc1ccc(NC(=O)C(Cc2ccccc2)NS(=O)(=O)c2ccc3c(c2)oc(=O)n3C)cc1C (stereo not drawn) 5.02%
CCc1ccc(NC(=O)Cn2c(C(=O)OC)cc3oc(C)cc32)cc1 8.54%
CCN1CCN(Cc2nc3cc(NC(=O)c4cccc([N+](=O)[O-])c4)ccc3n2CC)CC1 -11.6%
O=C(CSc1nc(-c2ccco2)nc2cc(=O)[nH]n12)Nc1ccc(F)cc1 0.939%
Cc1ccc(C)c(NC(=O)CSc2nnc(NC(=O)Nc3ccccc3)s2)c1 2.19%
CCCCCCC(=O)Nc1cc2nc3c(nc2cc1C)c(=O)n(C)c(=O)n3C 3.05%
Cc1ccc(CCNC(=O)C(C)n2nc(C)c3c(C)n(-c4ccc(C)cc4)nc3c2=O)cc1 (stereo not drawn) -20.2%
CCc1ccc(C2CC(=O)c3c([nH]c(C(=O)OC4CCCCCC4)c3C)C2)cc1 (stereo not drawn) 0.532%
COc1ccc(CCNC(=O)c2nc(SCc3ccc(F)cc3)ncc2Cl)cc1OC 5.08%
CCOC(=O)N1CCC(NC(=O)c2ccc3c(c2)N(Cc2ccc(F)cc2)C(=O)c2ccccc2S3=O)CC1 (stereo not drawn) 30%
COc1ccc(NC(=O)c2cc(=O)c3cc(C)cc(C)c3o2)cc1 0.237%
CCOc1cccc2sc(NC(=O)c3ccc(S(=O)(=O)N4CCCCC4)cc3)nc12 -21.4%
O=C(NCCS(=O)(=O)N1CCN(c2ccc(F)cc2)CC1)c1ccccc1Br -6.8%
Cc1ccc(CNC(=O)c2cc(=O)c3cc(C)c(C)cc3o2)cc1 8.24%
CC1CCCCN1Cc1c(O)ccc2c(=O)c(-c3ccc(Cl)cc3)coc12 (stereo not drawn) 5.95%
CCOC(=O)c1c(-c2ccc(Br)cc2)csc1NC(=O)c1ccc(C(C)(C)C)cc1 -2.28%
CCCS(=O)(=O)c1nc(S(=O)(=O)c2ccc(C)cc2)c(NCC(C)C)s1 6.39%
CC1CCN(S(=O)(=O)c2ccc3c(ccc(=O)n3CC(=O)NCc3ccccc3)c2)CC1 2.94%
COc1ccc(NC(=O)c2cc3c(=O)n(C)c4cc(Cl)ccc4c3s2)cc1Cl 3.44%
CC(=O)Nc1cccc(NC(=O)CSc2cn(CC(=O)N3CCCC3)c3ccccc23)c1 1.62%
COc1ccccc1NC(=O)C1=C(C)Nc2nc(-c3ccco3)nn2C1c1cccc(C)c1 (stereo not drawn) -11.7%
Cc1noc2ncnc(N3CCCC(C(=O)Nc4cc(F)ccc4F)C3)c12 (stereo not drawn) 0.568%
CCC(=O)Nc1ccc(C)cc1-c1nc2ccccc2n(CC(=O)c2ccc(C)cc2)c1=O -0.875%
CS(=O)(=O)c1ncc(N(Cc2ccco2)Cc2cccs2)c(C(=O)Nc2ccccc2F)n1 -0.138%
Cc1cc(-n2c(SCc3ccccc3F)nc3[nH]ncc3c2=O)ccc1Cl -6.86%
CCc1c(C)sc2c1CCN(C(=O)Nc1ccccc1Cl)C2c1ccc(OC)cc1 (stereo not drawn) 23.1%
COc1ccc(N2C(=O)NC(NS(=O)(=O)c3ccc(NC(C)=O)cc3)(C(F)(F)F)C2=O)cc1 (stereo not drawn) 4.73%
CC1CCc2onc(C(=O)N3CCN(c4ccc(Cl)cc4)CC3)c2C1 (stereo not drawn) -3.88%
Cc1ccc(Cn2ccn(Cc3ccc(C)cc3)c(=O)c2=O)cc1 17.7%
CCN1CCN(C(=O)Cn2c(-c3cccs3)cc3cc(Cl)ccc32)CC1 -17.5%
Cc1ccc(C)c(N2CCN(C(=O)CCc3c(C)nc4c(c3C)c(=O)n(C)c(=O)n4C)CC2)c1 -15.3%
COc1ccc(CNC(=O)Cc2c(C)c3c(O)cc(C)cc3oc2=O)cc1 6.51%
CCOC(=O)c1cc2c(=O)n3ccccc3nc2n(CC(C)C)c1=NC(=O)C(C)(C)Oc1ccc(Cl)cc1 1.25%
Cc1ccc(C(=O)N2CC(=O)Nc3ccc(Br)cc3C2c2ccc(F)cc2)cc1C (stereo not drawn) -11.6%
CCc1ccc(NC(=O)Cn2cnc3nc4c(cc3c2=O)CCCC4)cc1 0.509%
COc1ccc(C(CNC(=O)c2oc3ccccc3c2C)N2CCCCC2)cc1 (stereo not drawn) 0.872%
COc1ccccc1CNC(=O)C1CCN(c2ncnc3c2nc2n3CCCCC2)CC1 0.438%
O=C1CCCc2cc(S(=O)(=O)N3CCCC(C(=O)NCc4ccccc4Cl)C3)ccc2N1 (stereo not drawn) 22.6%
COc1cc(Cl)c(C)cc1NC(=O)c1c(C)oc2nc(C)nc(N3CCCC3)c12 -25.5%
Cc1cc(C)cc(NS(=O)(=O)c2ccc3[nH]cc(C(=O)N4CCCCC4)c(=O)c3c2)c1 0.906%
CCC(=O)N1CCc2cc(CNS(=O)(=O)c3ccccc3F)ccc21 -8.52%
Cc1ccc(-n2c(=O)c3oc4ccccc4c3n(Cc3ccccc3)c2=O)cc1C -3.02%
Cc1ccc(-c2noc(-c3nnn(CC(=O)Nc4ccc(C)cc4Cl)c3N)n2)cc1 6.17%
Cc1ccc(-n2nc(C(=O)NC(C)C)c(=O)n(C)c2=O)cc1 7.42%
Cc1cccc(OCC(=O)Nc2nnc(S(=O)(=O)N3CCCCCC3)s2)c1 7.01%
CCOc1cc2c(cc1OCC)C(CC(=O)OC)N(C(=O)Nc1cc(C)cc(C)c1)CC2 (stereo not drawn) -2.74%
Cc1ccc(NC(=O)CCc2nc(-c3ccccc3F)no2)c(C)c1 74.6%
COc1cc(C(=O)Nc2sc3c(c2C#N)CCCC3)c(Br)c(OC)c1OC -9.21%
CCOc1ccccc1CNC(=O)c1ccc2c(c1)N(CC)CCS2 -9.91%
COc1cccc(CNC(=O)C(Cc2ccccc2)NS(=O)(=O)c2ccc3c(c2)CCN3C(C)=O)c1 (stereo not drawn) 1.94%
CCOc1ccc(NS(=O)(=O)c2ccc3[nH]cc(C(=O)NCc4ccco4)c(=O)c3c2)cc1 4.85%
O=S(=O)(NCCc1ccccc1)c1ccc(N2CCCCS2(=O)=O)cc1 3.41%
O=c1cc(CN2CCN(S(=O)(=O)c3ccc(Cl)cc3)CC2)nc2sc(-c3ccccc3F)nn12 0.523%
COc1ccc(Cl)cc1NC(=O)c1cc2nc(-c3ccc4c(c3)OCO4)cc(C(F)(F)F)n2n1 3.02%
O=C(CSc1nc(-c2ccc(Cl)cc2)nc2c1Cc1ccccc1O2)N1CCCCC1 4.44%
COc1ccc(C(=O)O)cc1Nc1nc2ccc(C)cc2n2cnnc12 -9.03%
Cc1ccc(C)c(N2CCN(c3nc4ccccc4c4nc(CCn5nc(C)cc5C)nn34)CC2)c1 7.23%
CCCCc1ccc(NC(=O)c2cc3c(=O)n4ccccc4nc3n2C)cc1 -2.42%
COC(=O)Cn1c(=O)c2c(nc3n2CCN3c2cccc(C)c2)n(C)c1=O -8.94%
CCN(CC)S(=O)(=O)c1ccc(NC(=O)[C@H](CSCc2ccccc2)N2Cc3ccccc3C2=O)cc1 3.53%
COc1ccc2nc3sc(C(=O)Nc4ccccc4F)cc3cc2c1 -6.85%
COc1ccc(NC(=O)CCCc2nc(-c3ccco3)no2)c(OC)c1 -10.5%
CCOC(=O)Cn1c(=O)oc2cc(S(=O)(=O)N3CCN(c4ccc(Cl)cc4)CC3)ccc21 4.23%
CCc1ccc(S(=O)(=O)c2cn(C)c3cc(N4CCCCC4C)c(F)cc3c2=O)cc1 (stereo not drawn) -8.39%
Cc1ccc(S(=O)(=O)NCC(c2ccc(N(C)C)cc2)N2CCCC2)cc1 (stereo not drawn) -5.81%
COc1cc(OC)cc(-c2nc3n(n2)C(c2ccccc2F)C(C(=O)Nc2cccnc2)=C(C)N3)c1 (stereo not drawn) 0.369%

outcome, inactive:
CCOC(=O)c1c(C)[nH]c(C)c1S(=O)(=O)NCC(=O)Nc1cc(Cl)ccc1OC
CC(=O)c1ccc(N2CCN(C(=O)Nc3cn(CC(C)C)c(=O)c4ccccc34)CC2)cc1
COc1cc(OC)cc(-c2nc3nc(C)c(CCC(=O)Nc4ccccc4)c(C)n3n2)c1
COc1ccc(C2CC(=O)Nc3cc4c(cc32)OCO4)c(OC)c1 (stereo not drawn)
COc1ccc(NC(=O)CN2CCN(C3CCCCC3)C(=O)C2=O)cc1
COc1ccc(CNC(=O)C2CCCN(C(=O)c3cnn(-c4ccc(F)cc4)c3-n3cccc3)C2)cc1 (stereo not drawn)
Cc1ccc(CCNC(=O)c2oc(=O)c3ccccc3c2-c2ccc(C)cc2)cc1
CC(CNc1nc2ccccc2c2nc(-c3ccccc3)nn12)c1ccccc1 (stereo not drawn)
CCOC(=O)c1c(C)c(C(=O)NCc2ccc(Cl)cc2)c(C)n1C
CCc1ccc(-n2c(=O)c3c(C)c(C(=O)N(C)C)sc3n(CC(=O)Nc3cc(Cl)ccc3C)c2=O)cc1
CCCCNC(=O)Cn1c(=O)cc(C)c2c(C)nn(-c3cccc(Cl)c3C)c21
CC(C)(C)OC(=O)N1CCC(c2c(C(=O)NCc3ccco3)cnn2-c2ccc(F)cc2F)CC1
COc1ccc(Cl)cc1NC(=O)C(C)n1c(=O)cc(C(F)(F)F)c2c(C)nn(C)c21 (stereo not drawn)
CC(C)(C)OC(=O)N1CCC(c2nnc(SCc3ccccc3Cl)o2)CC1
Cc1cc(Cl)ccc1NC(=O)C1CCCN1S(=O)(=O)c1ccc2c(c1)CCCC(=O)N2 (stereo not drawn)
Cc1ccc(-c2noc(-c3ccc(NC4CCCC4)c([N+](=O)[O-])c3)n2)cc1
CCOc1ccc(CNC(=O)CCCn2nc(C)c3c(C)n(-c4ccc(C)cc4)nc3c2=O)cc1
CCc1ccc(-n2c3nc(=O)[nH]c(=O)c-3cc3c(C)nn(-c4ccccc4)c32)cc1
CC(C)CCNC(=O)c1c[nH]c2ccc(S(=O)(=O)Nc3cccc(C(F)(F)F)c3)cc2c1=O
CCc1nnc(NC(=O)CSc2nccn2Cc2ccccc2)s1
Cc1noc(-c2ccc(N3CCCCC3C)c([N+](=O)[O-])c2)n1 (stereo not drawn)
COc1cccc(OC(=O)CSc2nnc(-c3ccccc3OC)o2)c1
Cc1ccc(N2C(=O)CS(=O)(=O)C23C(=O)N(Cc2cccc(F)c2)c2ccccc23)cc1Cl (stereo not drawn)
Cc1cccc(NC(=O)c2sc3nc4n(c(=O)c3c2C)N=C(c2ccc(F)cc2)CS4)c1C

— PubChem BioAssay AID1963576 (National Center for Advancing Translational Sciences (NCATS), 2024)
